Some of the results follow. The list includes weakly bound sequences.
molecular target: MaxL homodimer (UniProt P61244); assay: universal protein-binding microarray (PBM); settings: PBS-based mixture, 10 nM His-tagged protein dimer, 2% milk, 200 ng/uL BSA, 50 ng/uL salmon testes DNA, 0.02% TX-100; detection with Alexa 488 anti-His …; high values mean tight binding; most listed sequences are background and not binding sites; double strand, one strand shown
Chain of UniProt P61244 (P61244 whole entry): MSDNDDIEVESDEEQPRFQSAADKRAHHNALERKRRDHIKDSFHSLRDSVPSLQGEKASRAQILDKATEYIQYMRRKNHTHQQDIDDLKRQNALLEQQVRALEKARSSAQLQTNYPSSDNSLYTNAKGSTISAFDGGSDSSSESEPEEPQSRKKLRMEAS

Sequence	binding signal (normalized occupancy)
TAGGCAAA	0.0686
CGCAAAAA	0.0714
CGTAGCTC	0.0766
AAACAACA	0.0764
GGCTAGCC	0.0611
CCGATGAA	0.076
GGCTCCAC	0.0745
CCAGATAG	0.0774
ACGCACTG	0.0765
AATTTGCA	0.0748
AGGGCCGA	0.0672
GACCGCTA	0.0698
AAGCCCCA	0.0742
ACGTTCAG	0.0748
TACGAGCA	0.0799
ACGTGCTG	0.0935
CATGAAGA	0.0792
CTACGGCA	0.0744
ATTAAGCA	0.0819
CATTGACA	0.0829
AAATTGGT	0.0762
GCTCACCC	0.0746
AACTGTCG	0.0706
CGCCTTTA	0.0671
TGTTCCAA	0.0711

Sequence	binding signal (normalized occupancy)
CGTAAAGA	0.071
CAGCTTTA	0.0727
CACAGAGG	0.0754
GGCAATTA	0.0748
AGAGGGAA	0.0741
ACGCATCC	0.077
GAGTTAGC	0.0731
AAATCGGT	0.0734
CCGAGGTA	0.0723
CATTTCCC	0.0764
GCCGGACA	0.0727
AAAATGGC	0.0772
GGGCACCC	0.0691
ATCTTCGA	0.0761
AGAATGCA	0.0792
CGGTACCG	0.0713
ACGGCGGC	0.07
CTAGGAAC	0.0691
CTAACTGC	0.0701
CACCTCCA	0.0801
ACCGGGTA	0.0733
CGAGTTAA	0.0752
TAGAGGCA	0.0782
GACACCTC	0.0746
CGCACATC	0.0825

Sequence	binding signal (normalized occupancy)
CCCCAAAC	0.077
GCTAGTTA	0.0769
CTCACATC	0.078
ATTGGGCA	0.0772
AGGTAGAG	0.0719
TAGACTCA	0.0729
GTAAGTCA	0.073
ATTAACTG	0.0763
AGCTTCTG	0.0664
AACCTACC	0.0763
CTACACGA	0.0821
ATAGAATA	0.0825
CGGCTTGC	0.0672
AGGTGGCG	0.0875
AGGGCTCG	0.0695
CCAGGCCG	0.0669
CGGGTTAA	0.0754
GCAAATAA	0.0767
ATACCCCG	0.0835
GGGCCCCA	0.0709
CAGATGGA	0.0847
AACAGCTG	0.0749
AAAACTGT	0.072
AAGCGCAT	0.0827
ATCGGGTA	0.0747

Sequence	binding signal (normalized occupancy)
GAATAGCA	0.0818
AATCTCAG	0.075
GCCCGTGA	0.0751
AGATTTCC	0.0729
ATCCCTGA	0.0751
ATAAACCC	0.0807
CAATGACC	0.0777
CCGATCGC	0.0742
ACAAGCGC	0.0756
AGATGACA	0.0778
AGTGAATC	0.075
AAGACTGC	0.0693
ACTATTGC	0.0752
TGACAAAA	0.0791
CTGCAACC	0.0736
AAACGAAC	0.0725
TCCCCGGA	0.07
GTCATAGA	0.0813
ACCTAGAC	0.0731
CCCGATGA	0.0757
ATATACAT	0.0936
CTTGCGCC	0.0652
CGCTCAGA	0.071
AGGCTTGC	0.073
AGAGTCAG	0.075

Sequence	binding signal (normalized occupancy)
AATATCCG	0.0716
CGAGCGTA	0.0731
ACAGCCAT	0.0785
AATCATCC	0.083
CTGCGTGC	0.0861
AATACCTC	0.0803
GAAATTTA	0.0725
ATAAAATA	0.0781
AGAACTAC	0.0732
AATGAGCA	0.0774
CGGGACAC	0.0758
AAGGCATA	0.0742
CCTAGTAG	0.0707
AGCCAGAA	0.0682
CATTTCGC	0.0777
GCGGTGCC	0.0695
AACCATAG	0.0719
CTTATTCC	0.0719
CTAAGGTA	0.0767
ATTGAAGG	0.0752
ACGAGTCA	0.0784
TCCTCGCA	0.0758
GATGGGAC	0.0803
CACCCCCC	0.0915
CATCTAAG	0.0744

Sequence	binding signal (normalized occupancy)
CTTAGACA	0.0749
GTGGATAA	0.0854
ATCTCTTC	0.0747
ACCGGCGT	0.0721
ACGGCACC	0.0742
AGGTCCAC	0.072
GGAAGCAC	0.0773
CATCCTCA	0.0798
AAGAACAC	0.081
ATGTCTAA	0.0759
GATCCGTA	0.074
ACAGATCG	0.0762
ACCTGTGA	0.078
ACCTAATG	0.079
GCAGTCCA	0.0742
TTCATAAA	0.0768
CCTCTGCA	0.0733
CTCTATAA	0.0752
AGCAGACG	0.0672
AATATTCT	0.0794
ATTTTACA	0.0835
GAGCTATC	0.0729
TCGGCCCA	0.0708
CTATCTTC	0.0773
GCTGCACC	0.0701

Sequence	binding signal (normalized occupancy)
CTTCCAAA	0.0767
AAAGTCGG	0.0675
AACCCCCA	0.0788
AGCATTGG	0.0776
GGCTATGA	0.0759
TTAGATAA	0.08
ACCGCGCG	0.0856
ATAACGCA	0.0837
ACTTTCAG	0.0708
GTGATATA	0.0854
CCGGCCCA	0.0718
GGGCGACC	0.0695
CGCCTAAG	0.0691
AAGTAATT	0.0716
CACTCGGA	0.0735
GTCCGAGA	0.0697
ATAACTGA	0.0776
ACGGTAAA	0.0764
AATACTTA	0.0757
CCTTTCTA	0.0811
ATGCCAGA	0.0794
AGCTACAA	0.0722

Source: PMC4242493
